# Where “and” joins values, the source holds several entries; their conditions need not be identical. Equal values may be shown once. Among all 150,000 compounds or so, about 190 (0.13%) were called active. The shares of active, inactive and inconclusive entries below differ from those in the screen. The call rests on the fitted dose curve; in most records, active means well fitted inhibition curve with a large enough effect; inconclusive means small, poorly fitted or top-dose-only effect; inactive means flat fitted curve, though single readings scatter. Potencies beside an inconclusive call are fits to weak or partial responses and may not hold up.
# Target: Polyunsaturated fatty acid lipoxygenase ALOX12 (Homo sapiens) (UniProt P18054)
# Experiment: qHTS Assay for Inhibitors of 12-hLO (12-human lipoxygenase); further: nearly all actives have a fitted effect of over 55% in size
# Conditions: purified 12-hLO, xylenol orange hydroperoxide absorbance; series mostly up to 57.1 µM; activity change, negative = inhibition: at the top concentration
# Outline: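 Xylenol orange chromogenic assay: hydroperoxide from 12hLO oxidises Fe(II), giving red-shifted Fe(III)-XO absorbance. Conditions: 150 nM enzyme, 40 uM arachidonic acid, 25 mM Hepes pH 7.0, 0.01% Triton X-100, 30 min, room temperature.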
# On the % scale 0 is the no-effect control and ±100 the full control effect; potency means the concentration at half of the fitted maximal effect; tags describe the fitted curve by direction and shape.
# UniProt P18054, sequence (P18054 whole entry, looked up): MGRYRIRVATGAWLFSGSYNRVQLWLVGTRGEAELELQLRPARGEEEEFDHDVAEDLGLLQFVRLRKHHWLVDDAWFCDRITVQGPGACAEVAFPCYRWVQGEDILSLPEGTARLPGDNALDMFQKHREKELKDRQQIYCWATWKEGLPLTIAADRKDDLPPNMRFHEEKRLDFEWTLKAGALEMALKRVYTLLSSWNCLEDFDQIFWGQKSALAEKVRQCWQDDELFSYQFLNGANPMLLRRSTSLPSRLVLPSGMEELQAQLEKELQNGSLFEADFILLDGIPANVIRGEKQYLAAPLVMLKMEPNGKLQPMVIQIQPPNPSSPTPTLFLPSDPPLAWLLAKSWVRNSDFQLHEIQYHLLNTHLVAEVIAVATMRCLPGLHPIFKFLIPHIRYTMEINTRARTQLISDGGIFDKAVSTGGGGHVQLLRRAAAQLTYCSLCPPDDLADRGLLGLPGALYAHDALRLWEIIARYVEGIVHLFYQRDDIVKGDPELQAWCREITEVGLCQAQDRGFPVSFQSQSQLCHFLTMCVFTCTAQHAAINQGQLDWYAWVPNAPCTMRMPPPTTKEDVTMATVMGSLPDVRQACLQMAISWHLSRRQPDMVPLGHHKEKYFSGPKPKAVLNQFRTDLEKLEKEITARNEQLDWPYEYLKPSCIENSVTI
SMILES,"activity change, negative = inhibition",Potency
CC1Cn2c(nnc2-c2cccc(Cl)c2)S1 (stereo not given),inactive: 2.02%,–
COC(=O)CSc1nc(-c2ccccc2)c2c(c1C#N)CCCC2,inactive: 7.42%,–
O=C(CN1CCCC(O)C1)N1c2ccccc2Sc2ccc(C(F)(F)F)cc21 (stereo not given),inactive: -6.08%,–
CCCNc1c(F)c(F)c2c(C)c3ccccc3nc2c1F,–,"inconclusive: 22.4 µM [inhibitor, single point]"
CC(C)(C)c1ccccc1NC(=S)NCc1ccccc1,–,"inconclusive: 39.8 µM [inhibitor, single point]"
Cc1ccc(C)c(NC(=S)NNC(=O)c2csc3c2CCCC3)c1,–,"inconclusive: 39.8 µM [inhibitor, single point]"
Nc1cc(-c2ccncc2)c[nH]c1=O,–,"inconclusive: 17.8 µM [inhibitor, partial curve]"
O=C(NCc1ccccn1)c1ccc(NC(=O)c2ccco2)cc1,inactive: 0.578%,–
Cc1ccc(C)c2nc(SCC(=O)NCc3cccs3)c(C#N)cc12,inactive: 9.5%,–
O=C1c2oc3ccc(Cl)cc3c(=O)c2C(c2ccccn2)N1CCCN1CCOCC1 (stereo not given),inactive: -1.81%,–
CC(NC(=O)C1CC=CCC1C(=O)O)C1CC2CCC1C2 (stereo not given),inactive: -11.8%,–
COc1ccc(CN2CC(C(=O)NCCN3CCOCC3)CC2=O)cc1 (stereo not given),inactive: -2.88%,–
COc1ccccc1NC(=S)N1C2CCC1CC(NC(=O)NC13CC4CC(CC(C4)C1)C3)C2 (stereo not given),–,"inconclusive: 25.1 µM [inhibitor, partial curve]"
Cc1cc(Cl)c(S(=O)(=O)N/N=C/c2ccc3c(c2)OCO3)c(Cl)c1,–,"inconclusive: 10 µM [inhibitor, partial curve]"
Cc1ccc(S(=O)(=O)N2c3ccccc3-c3c(ssc3=S)C2(C)C)cc1,–,"inconclusive: 20 µM [inhibitor, single point]"
Cc1ccc(NC(=O)Nc2cccs2)c(Cl)c1,–,"inconclusive: 39.8 µM [inhibitor, single point]"
Cc1ccc(C2CC(c3ccccc3)=NN2C(=S)Nc2ccccc2)o1 (stereo not given),–,"inconclusive: 4.47 µM [inhibitor, full curve]"
Cc1ccc(N2C(=O)[C@@H]3[C@H](C2=O)[C@H]2C=CC=NN2[C@@H]3C(=O)Nc2ccc(Cl)cc2)cc1,–,"inconclusive: 17.8 µM [inhibitor, partial curve]"
Oc1ccc(CN2CCCCC2)c2cccnc12,–,"inconclusive: 10 µM [inhibitor, partial curve]"
CCn1c(=O)c(C(=O)NCc2cccnc2)c(O)c2ccccc21,–,"inconclusive: 3.55 µM [inhibitor, full curve, poor fit]"
Cn1c(CCNC(=O)c2cccs2)nnc1SCC(=O)N1CCN(c2ccccc2)CC1,inactive: 4.47%,–
Clc1ccc(-c2nnc(-c3ccccc3Cl)o2)cc1,inactive: -12.5%,–
CCNc1ccc(Br)cc(C(=O)/C=C/c2ccc3c(c2)OCO3)c1=O,–,"inconclusive: 0.794 µM [inhibitor, partial curve]"
COc1cc(C2C3C(=O)N(Cc4ccccc4)C(=O)C3ON2c2ccccc2)cc(OC)c1O (stereo not given),inactive: -17.2%,–
CCOC(=O)C1=C(C)Nc2ccc(C)cc2S1,–,"inconclusive: 15.8 µM [inhibitor, partial curve]"

SMILES,"activity change, negative = inhibition",Potency
O=C(Cc1cc(=O)[nH][nH]1)N/N=C/C=C/c1ccccc1,–,"inconclusive: 15.8 µM [inhibitor, partial curve] and inconclusive: 39.8 µM [inhibitor, single point]"
O=C(CCC(=O)N(CC(=O)NC1CCCC1)Cc1ccc2c(c1)OCO2)Nc1ccccn1,inactive: 3.12%,–
Oc1ccc(CN2CCc3ccccc3C2)c2cccnc12,–,"inconclusive: 15.8 µM [inhibitor, partial curve]"
CCN1CCCC1CN(Cc1cc2cc(C)ccc2[nH]c1=O)C(=O)Nc1ccccc1OC (stereo not given),–,"inconclusive: 10 µM [inhibitor, partial curve]"
COc1ccc(/C=N/N2C(=O)CSC2=S)cc1,–,"inconclusive: 20 µM [inhibitor, partial curve]"
Cc1cccc(OCCN2C(=O)C(=O)c3cccc(C)c32)c1,inactive: -0.107%,–
CCCC(O)(CCC)C(=O)NNc1ccccc1,–,"inconclusive: 0.398 µM [inhibitor, full curve]"
O=C(NC(=S)Nc1cccc(CO)c1)c1ccc(-c2ccccc2)cc1,–,"inconclusive: 14.1 µM [inhibitor, partial curve]"
Cc1ccc(C(=O)Nc2nnc(-c3ccco3)o2)cc1C,–,"inconclusive: 11.2 µM [inhibitor, partial curve]"
CCOc1ccc(N/N=C(/C#N)C(N)=O)cc1,–,"inconclusive: 0.794 µM [inhibitor, full curve, poor fit]"
CCCC(=O)NC(=S)Nc1cccc(Cl)c1N1CCCCC1,–,"inconclusive: 14.1 µM [inhibitor, partial curve]"
CCCn1c(C)cc(-c2csc(N)n2)c1C,inactive: -14.1%,–
CCCCn1nnc(NC(=S)NC(=O)c2cccs2)n1,inactive: -15.5%,–
CCc1nc(SCc2ccc(F)cc2)[nH]c(=O)c1C#N,inactive: 22.8%,–
S=C(NCCSCc1ccccc1Cl)Nc1ccccc1,–,"inconclusive: 28.2 µM [inhibitor, partial curve]"
COC(=O)N1CCC2(CCN(Cc3ccccc3)CC2)CC1,inactive: 1.44%,–
Cc1ccc(N(CC(=O)N/N=C/c2ccco2)S(=O)(=O)c2ccccc2)cc1,–,"inconclusive: 22.4 µM [inhibitor, partial curve]"
Cc1ccc(S(=O)(=O)c2c(N)n(/N=C/c3ccco3)c3nc4ccccc4nc23)cc1C,–,"inconclusive: 10 µM [inhibitor, partial curve]"
Nc1ccccc1[N+](=O)[O-],inactive: -3.31%,–
O=C(NC(=S)Nc1ccc2c(c1)OCCO2)c1cccc(Br)c1,–,"inconclusive: 28.2 µM [inhibitor, partial curve]"
NS(=O)(=O)c1cccc(NC(=S)NC(=O)C23CC4CC(CC(C4)C2)C3)c1,–,"inconclusive: 10 µM [inhibitor, partial curve]"
CC1(C)c2ccccc2N2CC(=O)NC21/C=C/c1ccco1 (stereo not given),–,"inconclusive: 2.82 µM [inhibitor, full curve]"
Cc1ccccc1NC(=O)C(=O)NCc1ccccn1,inactive: 3.48%,–
COc1ccc(NC(=O)CN2CCN(CC(=O)Nc3ccccc3Cl)CC2)c(OC)c1,inactive: 0.983%,–
O=C(NCc1ccccn1)c1ccc2ccccc2n1,inactive: 2.87%,–

SMILES,"activity change, negative = inhibition",Potency
CCCC(C)C(=O)Nc1nc(C)c(-c2csc(Nc3ccccc3OC)n2)s1 (stereo not given),–,"inconclusive: 17.8 µM [inhibitor, partial curve]"
Cc1cc(Nc2nnnn2-c2ccccc2)n(-c2ccc(Cl)cc2)n1,–,"inconclusive: 1 µM [inhibitor, full curve]"
COc1ccc(N2CSC3=C(C#N)C(c4cc(OC)ccc4OC)CC(=O)N3C2)c(OC)c1 (stereo not given),–,"inconclusive: 31.6 µM [inhibitor, single point]"
CCOC(=O)c1c(C)oc2c1c1c(c3ccccc32)OCN(Cc2cccnc2)C1,–,"inconclusive: 7.08 µM [inhibitor, partial curve]"
O=C(CCCc1nc2ccccc2s1)NC(c1ccccc1)c1ccccc1,inactive: -0.513%,–
CCCCn1c(NC(=S)Nc2ccccc2)nc2ccccc21,–,"inconclusive: 7.08 µM [inhibitor, single point]"
O=C(/C=C/c1ccccc1Cl)c1ccccc(=O)c1O,–,"inconclusive: 4.47 µM [inhibitor, partial curve]"
CC(C)=C1C(=O)NN(c2ccc(C)c(Cl)c2)C1=O,inactive: -27.2%,–
CCC(=O)O[C@@]1(C(=O)CCl)C(C)CC2C3CCC4=CC(=O)C=C[C@@]4(C)[C@]3(F)C(O)C[C@]21C (stereo not given in full),inactive: -2.23%,–
CCCCSc1nc(C)cc(NC(=S)Nc2ccc(OC)cc2)n1,–,"inconclusive: 3.16 µM [inhibitor, full curve]"
Cc1ccc(S(=O)(=O)CNC(=S)c2ccc3ccccc3c2)cc1,–,"inconclusive: 22.4 µM [inhibitor, single point]"
CCc1nnc(NS(=O)(=O)c2ccc(NC(=S)NC(=O)c3ccc(OC)c(OC)c3)cc2)s1,–,"inconclusive: 14.1 µM [inhibitor, partial curve]"
C=C(C)CNC(=S)N/N=C1\CCCCc2ccccc21,–,"inconclusive: 25.1 µM [inhibitor, single point]"
CC(C)NC(=S)N/N=C1\CCCCC1C1CCCCC1 (stereo not given),–,"inconclusive: 20 µM [inhibitor, partial curve]"
Cc1cccc(NC(=S)NC2CCCCCC2)c1C,–,"inconclusive: 35.5 µM [inhibitor, single point]"
N#CC1=C2SCN(c3ccc(F)cc3)CN2C(=O)CC1c1cccc(F)c1 (stereo not given),–,"inconclusive: 15.8 µM [inhibitor, partial curve]"
CCCNC(=S)Nc1ccc(Nc2ccccc2)cc1,–,"inconclusive: 20 µM [inhibitor, partial curve]"
Cc1cc2c(cc1C)CSC(c1ccc3ccccc3c1O)SC2,–,"inconclusive: 25.1 µM [inhibitor, partial curve]"
COc1ccc(S(=O)(=O)N(Cc2cc3ccc(OC)cc3[nH]c2=O)CC2COCCO2)cc1 (stereo not given),–,"inconclusive: 17.8 µM [inhibitor, partial curve]"
CN(CCC#N)S(=O)(=O)c1ccc2[nH]cc(C(=O)NCCc3ccccc3)c(=O)c2c1,inactive: -2.4%,–
Cc1oc(-c2cccs2)nc1CS(=O)CC(=O)NCCCOC(C)C (stereo not given),inactive: -1.23%,–
Cc1cccc(C(=O)N2CCN(c3ncnc4c3cnn4-c3ccccc3)CC2)c1,inactive: 0.373%,–
Fc1ccc(N/N=C(/c2ccccc2)c2ccccn2)cc1,–,"inconclusive: 25.1 µM [inhibitor, single point]"
Cc1noc(C)c1C(c1ccccc1)S(=O)(=O)c1ccccc1 (stereo not given),inactive: -1.68%,–
N#C/C(=N\Nc1ccccc1F)C(=N)N1CCCCC1,inactive: -23.9%,–

# Source: PubChem BioAssay AID1452 (National Center for Advancing Translational Sciences (NCATS), 2008)
